Source: PubChem BioAssay AID1347055 (National Center for Advancing Translational Sciences (NCATS), 2019)
In all, about 54,000 compounds went through this assay and about 120 (0.22%) were called active. This list was built around the results that the source calls inconclusive (neither active nor inactive); the mix of calls is not that of the screen. The call rests on the fitted dose curve; in most records, active means well fitted inhibition curve with a large enough effect; inconclusive means small, poorly fitted or top-dose-only effect, or effect the other way; inactive means flat fitted curve, though single readings scatter. No potency is given beside an inconclusive call; the fits are too rough.

Target: Fumarate hydratase, mitochondrial (Homo sapiens) (UniProt P07954)
Test: Identification of activators of human fumarate hydratase by quantitative high-throughput screening; further: the screen sought activators but most active calls are inhibition curves; nearly all actives have a fitted effect of over 45% in size
Settings: FH coupled MDH/diaphorase resazurin fluorescence, 15 min; activity change, negative = inhibition: at 79.9 µM (top of the series)
On the % scale 0 is the no-effect control and ±100 the full control effect; potency means the concentration at half of the fitted maximal effect; tags describe the fitted curve by direction and shape.

UniProt P07954, sequence (P07954 whole entry, looked up): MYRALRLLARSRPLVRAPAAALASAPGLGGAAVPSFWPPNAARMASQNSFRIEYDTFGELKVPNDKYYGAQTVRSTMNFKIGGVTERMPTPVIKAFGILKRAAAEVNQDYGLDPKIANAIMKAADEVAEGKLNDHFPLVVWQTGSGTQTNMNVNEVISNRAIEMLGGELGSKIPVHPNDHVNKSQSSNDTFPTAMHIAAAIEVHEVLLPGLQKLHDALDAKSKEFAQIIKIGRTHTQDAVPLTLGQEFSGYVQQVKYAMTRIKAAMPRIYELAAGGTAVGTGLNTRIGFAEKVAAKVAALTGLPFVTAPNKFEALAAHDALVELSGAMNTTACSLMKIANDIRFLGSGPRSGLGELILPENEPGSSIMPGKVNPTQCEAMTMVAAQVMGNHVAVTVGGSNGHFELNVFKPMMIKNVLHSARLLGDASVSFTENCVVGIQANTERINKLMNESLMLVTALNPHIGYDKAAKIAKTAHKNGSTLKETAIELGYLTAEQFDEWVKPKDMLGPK

Structure (SMILES) | Potency | activity change, negative = inhibition
CCCCOc1ccc(-c2cncc(C(=O)NCc3cccnc3N3CCOCC3)c2)cc1Cl | inconclusive [inhibitor, single point] | 
CCOc1ccc(C(=O)Nc2ccc3nc(Nc4cccc(C(F)(F)F)c4)cc(C)c3c2)cc1OCC | inactive | 
CC(=O)c1cccc(NS(=O)(=O)c2ccc3[nH]c4c(c3c2)CCCCC4)c1 | inconclusive [inhibitor, single point] | 
COc1ccc(Cl)cc1NC(=O)CSc1cn(CC(=O)N2CCCCC2)c2ccccc12 | inconclusive [inhibitor, single point] | 
O=C(CS(=O)(=O)c1cccc2nsnc12)N1CCN(c2ccccc2F)CC1 | inactive | 
O=C1CC(c2c(Cl)cccc2Cl)c2c(ccc3ccccc23)N1 (stereo unspecified) | inconclusive [inhibitor, partial curve, poor fit] | 
CN(CC1COCCO1)S(=O)(=O)Nc1ccc2ccc3ncc(-c4cnn(C)c4)cc3c(=O)c2c1 (stereo unspecified) | inconclusive [inhibitor, single point] | 
CN1CCN(c2ccc(Nc3cc(-c4cccc(-n5ccc6cc(C7CC7)cc(F)c6c5=O)c4CO)cn(C)c3=O)nc2)CC1 | inactive | 
Cc1nc(N=Nc2cc(S(=O)(=O)O)c3cc([N+](=O)[O-])cc(S(=O)(=O)O)c3c2)c(COP(=O)(O)O)c(C=O)c1O | inconclusive [inhibitor, single point] | 
COC(=O)c1ccc(NC(=O)CSc2cn(CC(=O)N3CCCCC3)c3ccccc23)cc1 | inconclusive [inhibitor, partial curve] | 
CC1CCN(S(=O)(=O)c2ccc3c(c2)c(=O)c(C(=O)N2CCN(c4cccc(Cl)c4)CC2)cn3C)CC1 | inconclusive [inhibitor, partial curve, poor fit] | 
O=c1c2cc3c(cc2nc2sc(Nc4ccccc4)nn12)OCO3 | inactive | 
Cc1cccc(C2CN(C)CCc3c2cc(O)c(O)c3Cl)c1 (stereo unspecified) | inconclusive [inhibitor, partial curve, poor fit] | 
O=C(CSc1nc(-c2ccccc2)cn1-c1ccccc1F)Nc1ccc(F)cc1 | inconclusive [inhibitor, partial curve, poor fit] | 
COc1ccc(NC(=O)CSc2nc(-c3cc(OC)c(OC)c(OC)c3)[nH]c2-c2ccc(F)cc2)cc1 | inconclusive [inhibitor, single point] | 
Cc1ccc(C)c(N2CCN(C(=O)Cc3c(C(=O)O)c(C)cn3C)CC2)c1 | inconclusive [inhibitor, partial curve, poor fit] | 
O=S(=O)(c1ccc(F)cc1)N(CC(O)Cn1c2ccccc2c2ccccc21)c1ccccc1 (stereo unspecified) | inconclusive [inhibitor, single point] | 
CCCNc1ccc2ncc(-c3ccc4[nH]ncc4c3)n2n1 | inactive | 
CCOC(=O)c1c(C)[nH]c(C)c1S(=O)(=O)N1CCCC(C(=O)Nc2cc(C)ccc2C)C1 (stereo unspecified) | inconclusive [activator, single point] | 
CCC(=O)N1CCc2cc(CNC(=O)c3ccccc3C)ccc21 | inactive | 
CCCCNC(=O)CSc1nc2nc(C)c(Cc3c(F)cccc3Cl)c(C)n2n1 | inconclusive [inhibitor, partial curve, poor fit] | 

Structure (SMILES) | Potency | activity change, negative = inhibition
Cc1ccc(OCC(=O)Nc2ccccc2C(=O)OCc2cc(=O)n3ccsc3n2)cc1 | inactive | 
CC(C)(O)C(O)C(=O)OCc1ccc(O[C@@H]2O[C@H](CO)[C@@H](O)[C@H](O)[C@H]2O)cc1 (stereo partly specified) | inactive | 
CN(C)C(=O)c1cc2cnc(Nc3ccc(N4CCNCC4)cn3)nc2n1C1CCCC1 | inactive | 
Cc1ccc(NC(=O)CSc2ncc(-c3ccccc3)[nH]2)cc1 | inactive | 
CC(C)CC1NC(=O)C2CC3(O)c4ccccc4NC3N2C1=O (stereo unspecified) | inactive | 
Cc1ccn2c(Nc3ccc4c(c3)OCCO4)c(-c3ccc(C)o3)nc2c1 | inconclusive [inhibitor, partial curve, poor fit] | 
CN(C)CCCNc1cc(N2CCN(C3CCCCC3)CC2)c2noc3c2c1C(=O)c1ccccc1-3 | inactive | 
COc1cc2ncc3c(-c4ccc(C)cc4)nn(-c4ccc(F)cc4F)c3c2cc1OC | inconclusive [inhibitor, partial curve, poor fit] | 
COc1cccc(-c2nc(CS(=O)(=O)CC(=O)NCc3cccc(Cl)c3)c(C)o2)c1 | inactive | 
CCn1cc2nc(SCc3cc(C)ccc3C)n(CCc3ccccc3)c(=O)c2n1 | inconclusive [inhibitor, single point] | 
COc1ccccc1NC(=O)c1ccc(COc2ccc(C)c(C)c2)o1 | inconclusive [inhibitor, single point] | 
COC(=O)c1c(C)oc2ccc(N(C(=O)c3ccncc3)S(=O)(=O)c3ccc(OC)cc3)cc12 | inconclusive [inhibitor, partial curve, poor fit] | 
COC(=O)c1ccc(NC(=O)CSc2ccc(-c3sc(-c4ccccc4)nc3C)nn2)cc1 | inconclusive [inhibitor, single point] | 
Cc1nn2c(=O)cc(COC(=O)c3ccc(NC(=O)COc4ccc(C)c(C)c4)cc3)nc2s1 | inactive | 
CCn1c(C)c(C)c2cc(C(=O)N3CCN(c4ccccc4)CC3)ccc21 | inconclusive [inhibitor, partial curve] | 
CCc1ccc(NC(=O)Cn2nc(C(F)(F)F)c3c2CCCC3)cc1 | inactive | 
CCc1cccc(NC(=O)C2CCCN2S(=O)(=O)c2ccc3nc(-c4ccccc4)[nH]c3c2)c1 (stereo unspecified) | inconclusive [inhibitor, partial curve, poor fit] | 
Cc1ccc(C)c(S(=O)(=O)c2nnn3c2nc(NC2CCCC2)c2sccc23)c1 | inconclusive [inhibitor, single point] | 
CCOc1ccc(CNc2cc(C)nc3nc(-c4cccc(C)c4)nn23)cc1OC | inconclusive [inhibitor, single point] | 
Cc1ccccc1C(=O)Nc1c(C)nc(Nc2ccccc2)nc1Nc1ccccc1 | inconclusive [inhibitor, single point] | 
COc1ccc(-c2nc(SCc3cc(=O)c4cc(C)ccc4[nH]3)n[nH]2)cc1 | inconclusive [inhibitor, partial curve, poor fit] | 

Structure (SMILES) | Potency | activity change, negative = inhibition
COc1ccc(/C=C/c2nc(C#N)c(NCCc3ccccc3)o2)cc1OC | inconclusive [inhibitor, partial curve, poor fit] | 
COc1ccc(CCNC(=O)c2cn(C)c3ccc(S(=O)(=O)N(C)C4CCCCC4)cc3c2=O)cc1OC | inconclusive [inhibitor, partial curve] | 
O=C(Nc1ccc2nc(SCC(=O)N3CCCC3)sc2c1)c1cccc(Cl)c1 | inconclusive [inhibitor, single point] | 
CCOC(=O)c1cc2c(=O)n3ccccc3nc2n(Cc2ccco2)c1=NC(=O)c1c(F)cccc1Cl | inconclusive [inhibitor, partial curve] | 
COC(=O)c1c(C)oc2ccc(N(C(=O)c3ccncc3)S(=O)(=O)c3c(C)cc(C)cc3C)cc12 | inactive | 
COc1ccc(-c2nnc(SCC(=O)NC3CCCCC3)nc2-c2ccc(OC)cc2)cc1 |  | inconclusive: -37% [inhibitor]
COc1ccc(CCNC(=O)c2cc3sccc3n2Cc2ccc(Cl)cc2)cc1OC | inconclusive [inhibitor, partial curve, poor fit] | 
CC1(C)C(=O)N2c3ccccc3[C@]3(CC(n4cnc5ccccc5c4=O)C(=O)O3)[C@H]2N1O (stereo partly specified) | inactive | 
CCn1c(=O)cc(OCC(=O)N2CCN(c3ccc(OC)cc3)CC2)c2ccccc21 | inactive | 
Cc1cccc(N2C(=O)CSC23C(=O)N(CC(=O)NCc2ccccc2Cl)c2ccccc23)c1 (stereo unspecified) | inconclusive [inhibitor, partial curve] | 
O=C(CC1CC(c2ccc(F)cc2F)=NO1)N1CCOCC1 (stereo unspecified) | inconclusive [inhibitor, single point] | 
O=C(CSc1nc(-c2cccc(F)c2)[nH]c1-c1ccccc1)Nc1ccc2c(c1)OCCO2 | inconclusive [inhibitor, partial curve, poor fit] | 
Cc1c(Cl)cccc1NC(=O)Cn1cc(C(=O)c2cccs2)c2ccccc21 | inconclusive [inhibitor, partial curve, poor fit] | 
C=C1C(=O)O[C@H]2C3=C(C)CCC[C@]3(C)C(=O)C[C@@H]12 | inactive | 
COc1ccc(CN2CCc3c(c(=O)n4ncc(C(=O)N5CCN(c6ccc(F)cc6)CC5)c4n3C)C2)cc1 | inconclusive [inhibitor, single point] | 
CCCn1c(NCc2ccc(N(CC)CC)cc2)nc2ccccc21 | inconclusive [inhibitor, partial curve, poor fit] | 
CCCN(CCC)C(=O)Cn1c(=O)n(-c2ccc(OC)cc2)c(=O)c2ccc(C(=O)NCc3ccc(C)cc3)cc21 | inactive | 
CCN(Cc1ccccc1)C(=O)c1cc2c(s1)-c1c(C)cccc1OC2 | inconclusive [inhibitor, partial curve, poor fit] | 
Cc1ccc(C)c(Cn2nc(-c3cc(C)ccc3C)ccc2=O)c1 | inconclusive [inhibitor, partial curve, poor fit] | 
